Test results published in PubChem BioAssay AID493208 (National Center for Advancing Translational Sciences (NCATS), 2011).
The whole screen tested about 44,000 compounds, of which about 340 (0.77%) were called active. Not shown: some 5% with an inconclusive outcome. The call rests on the fitted dose curve; in most records, active means well fitted inhibition curve with a large enough effect; inconclusive means small, poorly fitted or top-dose-only effect; inactive means flat fitted curve, though single readings scatter. The list shows a part of the results.

Assay: Acumen qHTS Assay for Inhibitors of the mTORC1 Signaling Pathway in MEF (Tsc2-/-, p53-/-) Cells: Sytravon;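 further: plate controls were DMSO for no effect and rapamycin for full effect; nearly all actives have a fitted effect of over 50% in size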
Conditions: phospho-rpS6 immunofluorescence/PI, 24 h; series mostly up to 38.3 µM; activity change, negative = inhibition: at the top concentration
Outline: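 Tsc2-/-, p53-/- MEFs (empty-vector stable line) in DMEM + 10% FBS were treated with compounds 24 h at 37 degree Celsius, fixed, and immunostained for phospho-rpS6 (Alexa-488) with propidium iodide counterstain. Laser-scanning cytometry gave % positive cells, normalized against 7.5 nM rapamycin and DMSO.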

Compound	activity change, negative = inhibition
CC(C)Cc1nn2c(=O)cc(COC(=O)c3cccc(NC(=O)CCc4ccccc4)c3)nc2s1	inactive: 0%
C=Cc1ccc(CSc2nc(-c3ccc(OC)cc3)nc3c2Cc2c(CO)cnc(C)c2O3)cc1	inactive: -3.33%
NCCc1nnc(SCc2ccc(Cl)cc2)o1	inactive: 15.2%
Clc1ccc(CCNc2ncnc3c2c(-c2ccccc2)cn3-c2ccccc2)cc1	inactive: 12.3%
COc1ccc(C(=O)CN2C(=O)N(c3cc(C)cc(C)c3)S(=O)(=O)c3ccccc32)cc1	inactive: -3.9%
COc1ccccc1CNC(=O)Cn1ncc2c(=O)oc3ccc(C)cc3c21	inactive: -15.2%
Cc1ccc(Nc2c(-c3ccc(C)cc3)nc3cnccn23)cc1	inactive: -9.48%
CCCCC(=O)Nc1cccc(OCc2cc(=O)n3ccccc3n2)c1	inactive: 8.45%
COc1cc(C(=O)Nc2cc(C)ccc2OCc2cc(=O)n3cc(C)sc3n2)cc(OC)c1OC	inactive: 5.17%
Cc1ccccc1CS(=O)(=O)Cc1ccc(C(=O)NCCc2ccccc2)o1	inactive: 7.91%
CCOC(=O)c1ccc(Nc2c(-c3ccc(O)cc3)nc3nc[nH]n23)cc1	inactive: -8.59%
Cc1ccc(NC(=O)CSc2nc3c(c(=O)[nH]2)CN(Cc2ccc4c(c2)OCO4)CC3)cc1C	inactive: -0.506%
Cn1c(=O)c2c(SCC(=O)NCc3ccco3)nc(-c3ccccc3Cl)nc2n(C)c1=O	inactive: 6.42%
CCOC(=O)c1ccc(NC(=O)c2oc3ccc4c(c3c2C)C(=O)CC(C)(CC)O4)cc1 (stereo not given)	inactive: -5.74%
CCOC(=O)C1CCCN(c2ncnc3c2cnn3-c2ccc(C)c(Cl)c2)C1 (stereo not given)	inactive: 3.92%
CC(=O)Nc1c(C)nn(-c2ccccc2)c1N1CCC(C(=O)Nc2cc(Cl)ccc2C)CC1	inactive: -6.24%
CCc1ccccc1NC(=O)c1cc(S(=O)(=O)NCCc2ccc(OC)c(OC)c2)ccc1F	inactive: 0.709%
Cc1nc2c(-c3ccccc3)c(C)nn2c(C)c1CCC(=O)NCc1cccc(Cl)c1	inactive: 1.29%
CCOc1ccc(NC(=O)C(C)Sc2nnc3cc(C)c4ccccc4n23)cc1 (stereo not given)	inactive: -11.6%
CCCOc1ccc(C2c3c(-c4ccccc4O)n[nH]c3C(=O)N2Cc2ccncc2)cc1OCC (stereo not given)	inactive: -1.06%
Cc1cccc(NC(=O)C(=O)NCC(c2cccnc2)N2CCOCC2)c1 (stereo not given)	inactive: -5.94%
COc1ccc(C)cc1NC(=O)C(=O)NCCc1csc(-c2ccc(C)cc2)n1	inactive: -3.8%
CCOC(=O)c1c(C)c(C(=O)NCCc2ccc(OC)cc2)c(C)n1C	inactive: -7.25%
Cc1cccc(CNC(=O)c2cnc3sc(N4CCCCC4)nn3c2=O)c1	inactive: 8.89%

Compound	activity change, negative = inhibition
CCc1nn(CC(=O)Nc2cccc(C)c2C)c(=O)c2cc3sccc3n12	inactive: 0.462%
Cc1ccc(CCNC(=O)C2CCCN(Cc3nc(-c4cccc(Cl)c4)oc3C)C2)cc1 (stereo not given)	inactive: 0.815%
CN(C(=O)CSc1cn(CC(=O)N2CCCCC2)c2ccccc12)c1ccccc1	inactive: -5.15%
COc1ccc(/C=C/c2nc(C#N)c(N3CCN(c4ccccc4)CC3)o2)cc1OC	inactive: 1.13%
O=C(Cc1ccc(F)cc1)N1CCC(c2nc3c(nnn3Cc3ccc(Cl)cc3)c(=O)[nH]2)CC1	inactive: -17.6%
COc1ccc(-c2noc(C3CC(=O)N(c4cc(C)cc(C)c4)C3)n2)cc1 (stereo not given)	inactive: -16.6%
CN1CCN(CCCNC(=O)c2cnn(-c3ccccc3)c2C2CCN(C(=O)OC(C)(C)C)CC2)CC1	inactive: -0.0346%
CCC(C)NC(=O)c1ccc2c(c1)N(Cc1ccccc1)C(=O)c1ccccc1S2(=O)=O (stereo not given)	inactive: -9.68%
CCC(Oc1ccccc1)C(=O)Nc1ccccc1OCc1cc(=O)n2ccccc2n1 (stereo not given)	inactive: 16.2%
CC1=C(C(=O)Nc2ccc(Cl)cc2)C(C(C)C)n2nc(SCc3cccc(C)c3)nc2N1 (stereo not given)	inactive: -4.81%
Cc1c2cnn(-c3ccccc3)c(=O)c2c(C)n1CCCC(=O)Nc1ccc(F)cc1F	inactive: -2.11%
CCCc1nnc(NC(=O)c2nc(S(=O)(=O)Cc3ccc(C)cc3)ncc2Cl)s1	inactive: -18%
O=C(c1ccc2c(Cl)c3c(nc2c1)CCCC3)N1CCN(c2ccccc2)CC1	inactive: -0.697%
CC(C)(C)C1CCc2onc(C(=O)Nc3sc4c(c3C(N)=O)CCCC4)c2C1 (stereo not given)	inactive: 0.584%
NC(=O)c1cc(S(=O)(=O)NCC2CCC(C(=O)Nc3cccc(Cl)c3)CC2)cs1 (stereo not given)	inactive: -3.13%
Cc1c(Cl)cccc1NC(=O)CCS(=O)(=O)c1ccc(Br)s1	inactive: 16%
Cc1ccc(NC(=O)CSc2nc3ccccc3c3nc(CCn4c(C)nc5ccccc54)nn23)cc1F	inactive: -7.57%
COCCNC(=O)c1ccc2c(c1)N(Cc1cccc(Cl)c1)C(=O)c1ccccc1S2=O (stereo not given)	inactive: -11.2%
Cc1ccc(C)c(NC(=O)CCNS(=O)(=O)c2ccc3c(c2)CCCC(=O)N3)c1	inactive: 7.93%
CN(C(=O)CSc1nnc2[nH]c(=O)cc(-c3ccccc3)n12)c1ccccc1	inactive: -1.65%
CCOC(=O)c1cc(-c2ccccc2)n(CC(=O)NCc2ccccc2OC)c1C	inactive: -0.597%
Fc1ccc(CNc2ncnc3c2c(-c2ccccc2)cn3-c2ccccc2)cc1	inactive: -16.8%
Cn1c(=O)n(C)c2cc(S(=O)(=O)Nc3ccccc3C(=O)O)ccc21	inactive: -16.4%
O=C(Nc1ccc(F)c(F)c1)C1CCCN(S(=O)(=O)c2cccc3nonc23)C1 (stereo not given)	inactive: -1.53%

Compound	activity change, negative = inhibition
Cc1ccc(C)c(N2CCN(C(=O)CN3C(=O)CSc4c3c(C)nn4-c3ccccc3)CC2)c1	inactive: -4.21%
COc1ccc(N(C)C(=O)NCc2noc3ccc(C)cc23)c(OC)c1	inactive: 1.5%
CCCNC(=O)Nc1cc(C(=O)NCc2cccc(OCC)c2)ccc1N1CCCC1	inactive: 1.98%
COc1ccccc1NC(=O)CSCc1cc(=O)c2c(C)cc(C)cc2[nH]1	inactive: 0%
COc1ccc(C(=O)CCC(=O)Nc2ccccc2C)cc1	inactive: -3.04%
Cc1cccc(NC(=O)C2CCCN(S(=O)(=O)c3c(C)noc3/C=C/N(C)C)C2)c1C (stereo not given)	inactive: 0.573%
CCC(Sc1nncn2c1cc1sccc12)C(=O)Nc1cccc(OC)c1 (stereo not given)	inactive: 0%
CC(C)(C)C1CCc2nc(NC(=O)Cc3ccc(Cl)cc3)sc2C1 (stereo not given)	inactive: 0.175%
Cc1ccc(CN2CCN(C3CCN(C(=O)OC(C)(C)C)CC3)C(=O)C2=O)cc1	inactive: 3.04%
CC(C)(C)c1ccc(C(=O)Nc2ccccc2C(=O)OCc2cc(=O)n3ccsc3n2)cc1	inactive: 8.15%
Cc1cc2nc3c(=O)n(C)c(=O)n(C)c3nc2cc1N=CN(C)C	inactive: 0.163%
CCOC(=O)CC(NC(=O)Cn1nnc(-c2ccccc2C)n1)c1ccc(OC)cc1 (stereo not given)	inactive: 2.08%
CCC(=O)N1CCc2cc(Br)cc(S(=O)(=O)CCC(=O)Nc3ccccc3C)c21	inactive: -2.96%
COc1ccc(-c2nc(SCC(=O)NCCCc3ccccc3)n[nH]2)cc1	inactive: 9.51%
COc1ccc(NC(=O)CCc2c(C)nn(-c3ccc(N4CCOCC4)nn3)c2C)cc1Cl	inactive: -13.3%
Cc1ccc2occ(CC(=O)Nc3ccc(S(N)(=O)=O)cc3)c2c1	inactive: -14.3%
CCN(CC)CCCNC(=O)c1oc2c(c1C)-c1nn(Cc3ccc(Cl)cc3)cc1CC2	inactive: 3.94%
Cc1cccc(-c2noc(C3CC(=O)N(c4ccc5c(c4)OCCO5)C3)n2)c1 (stereo not given)	inactive: -1.81%
Cc1ccc(N(CC(=O)NC(C)c2ccccc2)S(=O)(=O)c2c(C)noc2C)cc1 (stereo not given)	inactive: -6.86%
COc1ccc(NC(=O)Cn2c(C)c3cnn(-c4ccccc4)c(=O)c3c2C)c(OC)c1	inactive: 0.286%
CCc1ccc(C(=O)c2cn(CC(=O)Nc3ccc(F)cc3)c3cc4c(cc3c2=O)OCO4)cc1	inactive: -14.9%
Cc1cc(OCC(=O)Nc2sc3c(c2C(N)=O)CCCC3)ccc1C(C)C	inactive: 16.2%
COc1cc(C(=O)Nc2cc3c(cc2C)n(C)c(=O)c(=O)n3C)cc(OC)c1OC	inactive: -5.51%
COc1ccccc1-c1noc(-c2ccc(N3CCC(C)CC3)c([N+](=O)[O-])c2)n1	inactive: -0.468%

Compound	activity change, negative = inhibition
CCC(=O)N1CCc2cc(S(=O)(=O)NC(Cc3ccccc3)C(=O)Nc3ccc(C)cc3)ccc21 (stereo not given)	inactive: -4.38%
Cc1ccc(NC(=O)c2sc3nc(-c4cc5ccccc5oc4=O)[nH]c(=O)c3c2C)c(C)c1	inactive: 1.16%
O=C(CC1Sc2ccc(C(F)(F)F)cc2NC1=O)Nc1ccc(Cl)c(C(F)(F)F)c1 (stereo not given)	inactive: -11.7%
CCOc1ccc(-c2cc(OC(=O)c3ccc(F)cc3)c3c(C)oc(C)c3c(=O)c2)cc1	inactive: 3.13%
CCCc1cc(=O)[nH]c(Nc2cccc(Cl)c2Cl)n1	inactive: -3.08%
CCOc1ccc(-n2c(SCc3ccc(C(=O)OC)o3)nc3c([nH]c4ccccc43)c2=O)cc1	inactive: -2.48%
COc1cc(C(=O)Nc2cc(C)ccc2OCc2cc(=O)n3c(C)csc3n2)cc(OC)c1OC	inactive: 14.7%
CCOC(=O)C1CCCN(S(=O)(=O)c2ccc3c(c2)CCCN3C(C)=O)C1 (stereo not given)	inactive: -24.5%
COc1ccc(CCNC(=O)c2cc3c(-c4ccccc4F)nn(C)c3s2)c(OC)c1	inactive: -29.5%
O=C(Nc1ccc(Br)cc1F)c1cc(S(=O)(=O)NCc2ccc(F)cc2)ccc1F	inactive: -2.2%
COc1ccc(NC(=O)c2cc3c(s2)-c2c(C)cccc2OC3)c(OC)c1	inactive: 0.108%
CCCCNc1nc(Oc2ccc(=O)[nH]n2)nc(N(C)C)n1	inactive: 4.08%
C=C(C)Cn1c(=O)c2c(nc3n2CCN3c2ccc(CC)cc2)n(C)c1=O	inactive: 6.11%
Fc1ccc(-n2cc(-c3ccccc3)c3c(NC4CCCCC4)ncnc32)cc1	inactive: 8.42%
CCOC(=O)c1cccc(NC(=O)c2cc3c(=O)n(Cc4ccccc4)ccc3nc2C)c1	inactive: -3.23%
CCc1nn(CC(=O)NCCCN(CC)CC)c(=O)c2cc3sc(C)cc3n12	inactive: -16.1%
CSc1ncc(C(=O)Nc2ccccc2C(=O)c2ccccc2)c(C(F)(F)F)n1	inactive: 0%
O=C(CCC1N=C2c3ccccc3N=C(SCc3ccccc3F)N2C1=O)NC1CCCCC1 (stereo not given)	inactive: -1.69%
CCOc1cc(C2C(C(=O)OC)=C(C)NC3=C2C(=O)c2ccccc23)cc(Cl)c1O (stereo not given)	inactive: -15.8%
Cc1ccc(-n2ncc3c(NCCCN4CCOCC4)ncnc32)cc1	inactive: 7.33%
COc1cccc(-n2c(=O)c3c(C)c(C(=O)N(C)C)sc3n(Cc3ccc(F)cc3Cl)c2=O)c1	inactive: 0.566%
Fc1ccc(-c2nc(Nc3cccc(Cl)c3)nc3c2COc2ccccc2-3)cc1	inactive: 4.39%
COc1ccc(NC(=O)CN(Cc2ccccc2)S(=O)(=O)c2ccc(C)cc2)cc1Cl	inactive: 15.8%
